# About 14,000 (4.5%) of roughly 310,000 compounds showed an effect of 50% or more. The effect is printed as a negative number. Some of the results follow.
# Molecular target: human ether-à-go-go-related gene (hERG) potassium channel (human, UniProt Q12809)
# Assay: primary screen, population patch clamp on CHO cells stably expressing hERG
# 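Also: peak tail current of the secondary pulse compared with the same well before compound.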
# Chain of human ether-à-go-go-related gene (hERG) potassium channel (Q12809 whole entry, looked up): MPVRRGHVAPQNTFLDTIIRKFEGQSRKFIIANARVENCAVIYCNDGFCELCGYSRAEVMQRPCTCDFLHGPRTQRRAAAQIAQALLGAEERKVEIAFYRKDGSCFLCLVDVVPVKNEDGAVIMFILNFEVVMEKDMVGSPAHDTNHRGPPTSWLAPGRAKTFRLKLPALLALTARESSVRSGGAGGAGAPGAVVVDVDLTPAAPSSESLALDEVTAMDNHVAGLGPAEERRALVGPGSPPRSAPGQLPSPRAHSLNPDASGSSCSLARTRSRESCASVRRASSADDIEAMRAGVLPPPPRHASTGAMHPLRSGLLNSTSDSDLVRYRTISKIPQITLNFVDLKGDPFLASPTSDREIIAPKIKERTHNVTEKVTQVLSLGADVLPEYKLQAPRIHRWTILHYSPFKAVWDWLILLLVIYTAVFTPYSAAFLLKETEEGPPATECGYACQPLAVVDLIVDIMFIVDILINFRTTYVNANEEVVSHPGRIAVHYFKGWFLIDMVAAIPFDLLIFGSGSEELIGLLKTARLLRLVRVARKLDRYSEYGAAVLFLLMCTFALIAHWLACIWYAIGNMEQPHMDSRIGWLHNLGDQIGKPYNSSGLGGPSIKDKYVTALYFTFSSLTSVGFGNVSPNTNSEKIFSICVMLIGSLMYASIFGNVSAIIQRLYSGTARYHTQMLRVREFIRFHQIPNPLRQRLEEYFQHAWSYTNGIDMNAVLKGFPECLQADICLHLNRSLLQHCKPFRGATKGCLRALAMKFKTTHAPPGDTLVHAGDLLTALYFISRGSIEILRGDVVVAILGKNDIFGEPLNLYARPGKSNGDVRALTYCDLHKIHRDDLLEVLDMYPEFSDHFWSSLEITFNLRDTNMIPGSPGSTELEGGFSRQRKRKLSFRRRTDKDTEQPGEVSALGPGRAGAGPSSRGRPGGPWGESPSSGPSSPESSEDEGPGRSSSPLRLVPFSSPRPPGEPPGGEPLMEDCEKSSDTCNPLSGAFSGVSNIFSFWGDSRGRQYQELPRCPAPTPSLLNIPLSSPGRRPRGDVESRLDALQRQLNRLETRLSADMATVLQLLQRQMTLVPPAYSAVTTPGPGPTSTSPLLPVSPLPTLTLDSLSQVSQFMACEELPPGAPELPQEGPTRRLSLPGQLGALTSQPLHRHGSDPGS
row,SMILES,"hERG current change (%, negative = inhibition) at 10uM [%]"
1,Oc1cccc2ccc(/C=C/c3c(F)cccc3Cl)nc12,34.1
2,CCOC(=O)C1CCN(C(=O)COC(=O)c2ccc(Br)o2)CC1,-3.64
3,O=C1CC(NS(=O)(=O)c2cccnc2)CN1c1ccccc1 (centres unmarked),6.53
4,O=C(CCNC(=O)Cn1ccc2ccccc2c1=O)NCCCN1CCN(c2ccc(F)cc2)CC1,9.35
5,CC(C)(C)OC(=O)NCCCCCNC(=O)c1[nH]cnc1C(=O)N[C@@H](Cc1ccccc1)C(=O)OCc1ccccc1,3.68
6,COc1ccc(OC)c(NC(=O)c2ccc(Cl)cc2)c1,-5.32
7,CCn1c(=O)c2cc(C(=O)NCC(OC)OC)sc2c2ccccc21,0.202
8,O=C(CSc1nc2ccc([N+](=O)[O-])cc2[nH]1)NCCc1ccccc1,-22.7
9,Cc1ccc(C(=O)NCc2nnc3c(C(F)(F)F)cc(Cl)cn23)o1,3.18
10,CC(C)Sc1nnc(Nc2ccccc2)s1,-8.03
11,CCOc1ccccc1/C=N/NC(=O)c1cccc(S(=O)(=O)N(CC)CC)c1,-40.3
12,COCCCNC(=O)/C(C#N)=C/c1c(N2CCN(C)CC2)nc2ccccn2c1=O,40.4
13,CC(=O)CC(=O)Nc1ncccn1,31.9
14,Cc1cc(C)c(NN=c2c(=O)c3ccccc3c2=O)c(C)c1,-6.01
15,C=CCn1c(SCC(=O)Nc2c(C)n(C)n(-c3ccccc3)c2=O)nc2sc(C)c(C)c2c1=O,-31.4
16,c1ccc(Nc2ncnc3[nH]ncc23)cc1,10.4
17,NS(=O)(=O)c1ccc(NC(=O)c2cc(-c3cc(Cl)ccc3O)n[nH]2)cc1,15.7
18,C=CCOC(=O)C1=C(C)NC(=O)NC1/C=C/c1ccccc1 (centres unmarked),5.04
19,CCC(C(=O)N1CCN(Cc2ccc3c(c2)OCO3)CC1)n1c(=O)[nH]c2ccccc2c1=O (centres unmarked),-7.51

row,SMILES,"hERG current change (%, negative = inhibition) at 10uM [%]"
1,Cc1ccc2nc(SCC(=O)N3CCOCC3)[nH]c2c1,5.44
2,Cc1csc(SCCn2c(N3CCOCC3)nc3c2c(=O)[nH]c(=O)n3C)n1,13.7
3,Cc1ccc(S(=O)(=O)NNC(=O)C2CCN(Cc3ccccc3)CC2)cc1,-15.4
4,Cc1ccc(CSC2=Nc3ccccc3C3=NC(CCC(=O)NCc4ccco4)C(=O)N23)cc1 (centres unmarked),-68.8
5,C/C=C/c1ccc(OCCCNC(C)CC)c(OC)c1.O=C(O)C(=O)O (centres unmarked),-14
6,Cc1cc(C)c(S(=O)(=O)N2CCOC2CNC(=O)C(=O)NCc2ccccn2)c(C)c1 (centres unmarked),12.1
7,Cc1nnsc1C(=O)NC1CCCc2c1cnn2-c1cc(F)cc(F)c1 (centres unmarked),-12.1
8,CCCc1cc(-c2n[nH]c(=S)n2-c2cccc(C)c2)cs1,20.3
9,CSc1ccccc1C(=O)Nc1ccccc1C,19.7
10,O=C(NCCN1CCOCC1)C(=O)NCc1ccco1,19.5
11,O=C(CSc1nc2sc3c(c2c(=O)n1-c1ccccc1)CCCC3)N/N=C/c1ccccc1C(=O)O,4.98
12,COc1ccc2nc(/C=N/NC(=O)[C@H](CCSC)NC(=O)OC(C)(C)C)ccc2c1,-59.7
13,CCOC(=O)C1CCN(S(=O)(=O)Cc2ccccc2)CC1,-8.61
14,O=S(=O)(c1ccccc1)N1N=C(c2ccc(Br)cc2)CC1c1ccco1 (centres unmarked),-24.2
15,CCOC(=O)C1CCCN(c2c(Nc3ccc(C)c(C)c3)c(=O)c2=O)C1 (centres unmarked),-25.1
16,O=C(O)CC(O)C(=O)O (centres unmarked),15
17,Cc1nnc2sc(-c3ccc(NC(=O)c4ccc(-c5ccc(Cl)cc5Cl)o4)cc3)nn12,13.8
18,CCCC(C)NC(=O)COC(=O)c1ccc2c(c1)C(=O)N(Cc1ccco1)C2=O (centres unmarked),15.8
19,Cc1nc2c(-c3ccc(Cl)cc3)cnn2c(N)c1-c1ccc(F)cc1,22.1

row,SMILES,"hERG current change (%, negative = inhibition) at 10uM [%]"
1,CCCCNc1c(N)n(CCC)c(=O)[nH]c1=O,25.5
2,CN(CC(=O)Nc1cccc(F)c1)C(=O)C1CCN(S(=O)(=O)c2ccc3c(c2)OCCO3)CC1,-8.39
3,O=C(CSCc1ccccc1Br)NC1CC1,8.73
4,CN1CCN(c2nc(-c3ccccc3)ncc2S(=O)(=O)c2ccccc2)CC1,-63.2
5,COc1ccc(CCNC(=O)CSc2nc3cc(Cl)ccc3o2)cc1OC,-6.21
6,CCOC(=O)N1CCN(c2c(NCc3ccc(Cl)cc3)c(=O)c2=O)CC1,-17
7,COC(=O)C1CCN(C(=O)COC(=O)c2cc(-c3ccccc3)nc3ccc(OC)cc23)CC1,-20.1
8,CCOc1nc(NCCc2ccc(OC)c(OC)c2)nc(N2CCN(c3ccc(OC)cc3)CC2)n1,-3.79
9,Cc1ccc2nc(NC(=O)C3CCN(S(=O)(=O)c4ccc5c(c4)oc(=O)n5C)CC3)sc2c1,-2.35
10,COc1cc(OC)cc(-n2nnnc2SCC(=O)N2CCCc3ccccc32)c1,2.12
11,COc1ccc(-c2csc(NC(=O)CN3C(=O)CCC3=O)n2)cc1OC,11.4
12,CC(=O)N1N=C(c2ccc(C)cc2)CC1c1ccco1 (centres unmarked),10.7
13,S=C(Nc1ccccc1)Nc1ccc2cn[nH]c2c1,-14.5
14,CC(C)OCCCNC(=O)c1ccc(CN2CCc3ccccc3C2)cc1,-13.2
15,CCOC(=O)C1CCCN(C(=O)c2cc3c(OC)c(OC)c(OC)cc3[nH]2)C1 (centres unmarked),10.4
16,Cc1ccccc1CS(=O)(=O)c1cn(CC(=O)N2CCOCC2)c2ccccc12,-7.5
17,Nc1nc2ccccc2n1CCOc1ccc(F)cc1,-67.9
18,CC(C)COC(=O)Nc1nnc(Cc2ccccc2)s1,3.8
